The values that follow come from PubChem BioAssay AID463173 (ICCB-Longwood Screening Facility, Harvard Medical School, 2010).

Structures are written as SMILES. The campaign covered roughly 52,000 compounds. About 4,300 (8.3%) were called active. Cut-off read from the data, not from the text of the source: active = survival mostly below about 52% (no sharp cut-off); inactive = mostly above about 56%. This is one part of the list.

The subject of this test is DeltatarO mutant. The test can be described thus: S. aureus survival, RN4220 and DeltatarO strains – OD600, teichoic acid synthesis inhibitors, primary screen (AID 463173). Particulars: S. aureus RN4220 wild type/DeltatarO growth, OD600, 18 h, active compounds read low, screened at 18.75 µg/mL (by protocol).
On to `CCc1ccc(NC(=O)Cn2c(=O)c(CNc3ccccc3)cc3cc(OC)c(OC)cc32)cc1`, for which the survival was inactive: 99%.
The result for `COc1ccc(CCNC(=O)c2ccc3c(c2)N=C(C)c2cc(C)ccc2S3)cc1OC` reads inactive: 63%.
Turning to `Cc1cccc(NC(=O)C2CCCN(S(=O)(=O)c3c(C)[nH]c(=O)[nH]c3=O)C2)c1C` (stereo not given), the survival was inactive: 129%.
Turning to `Cc1ccc(Cn2nnc3c(=O)[nH]c(C4CCCN(C(=O)c5ccco5)C4)nc32)cc1` (stereo not given), the survival is inactive: 91%.
In the case of `COc1ccc(-c2nc3ccccc3o2)cc1NC(=O)C(C)(C)Oc1ccc(Br)cc1`, the survival was active: 4%.
As for `CC1=CC(C)C(/C=N/O)C(C)C1` (stereo not given), the survival is inactive: 94%.
With `O=c1[nH]c(=O)n(-c2ccc(Cl)cc2)c(O)c1/C=N/n1cnnc1`, the survival was inactive: 58%.
To `CC(=O)N(CN1C(=O)c2ccccc2C1=O)c1ccccc1` belongs inactive: 102%; to `COc1ccc(N2CC(NC(=O)C3CC3)CC2=O)cc1` (stereo not given), inactive: 71%; to `CCC(NC(=O)Nc1ccc(OC)c(OC)c1)c1c(-n2cccc2)sc2c1CCN(C)C2` (stereo not given), inactive: 65%.
To `CC(=O)c1cccc(NC(=O)[C@H](Cc2ccccc2)N2Cc3ccccc3C2=O)c1` belongs inactive: 67%; to `c1ccc2c(c1)COC1(CCCCC1)N2`, inactive: 94%; to `COc1ccccc1C(=O)NCCSc1c(C)[nH]c2ccccc12`, inactive: 50%.
To `CCN(CC)C(=O)Cn1c(=O)n(Cc2ccc(C(=O)NCc3ccc(C)cc3)cc2)c(=O)c2ccccc21` belongs inactive: 83%; to `Cc1ncc(CO)c2c1Oc1nc(-c3ccccc3)nc(SCC(=O)N3CCCCC3)c1C2`, inactive: 85%.
`CS(=O)(=O)N1CCc2cc(C(=O)Nc3ccc(Cl)c(C(F)(F)F)c3)ccc21`: the survival was active: 33%.
To `O=C(C1CCC(CNS(=O)(=O)c2ccc(Br)s2)CC1)N1CCN(c2ccccc2Cl)CC1` (stereo not given) belongs inactive: 95%; to `CCOc1cc2sc(N3CCC(C(=O)Nc4ccccc4C(=O)OC)CC3)nc2cc1Br`, inactive: 103%.
The result for `COc1ccc(NC(=O)Cn2c(=O)n(-c3cccc(C)c3)c(=O)c3c2c2cc(C)ccc2n3C)cc1Cl` reads inactive: 72%; that for `O=C1OC(c2ccccc2)=N/C1=C1\OC(=O)c2ccccc21`, inactive: 73%.
The result for `Cc1ccc(NC(=O)c2cn3c4c(ccc(Cl)c4c2=O)OC(C)C3)cc1C` (stereo not given) reads inactive: 92%; that for `CCOCCCNC(=O)c1cc2c(=O)n(C)c3ccccc3c2n1C`, inactive: 86%; that for `O=c1oc2ccccc2n1CCCOc1ccccc1Cl`, active: 3%.
In the case of `COc1cccc(N2CCN(C(=O)CCS(=O)(=O)c3ccc4c(c3)CC(=O)N4C)CC2)c1`, the survival is inactive: 80%.
The result for `O=C(Cn1c(=O)oc2cc(S(=O)(=O)N3CCCC3)ccc21)NCc1ccc(Cl)cc1` reads inactive: 115%.
The result for `c1ccc(-c2nc3cc(Cc4ccc5oc(-c6ccccn6)nc5c4)ccc3o2)nc1` reads inactive: 109%; that for `O=C(CN1CCN(Cc2ccc3c(c2)OCO3)CC1)N1c2ccccc2CCc2ccccc21`, inactive: 95%.
The result for `CCN1CCC(N(Cc2cccc(OC)c2)C(=O)Nc2cccc(C)c2C)CC1` reads active: 20%; that for `CC1=Nc2cc(C(=O)NCc3ccc(C)cc3)ccc2Sc2ccc(Cl)cc21`, inactive: 67%.
As for `COc1ccc(C2N=C(N)Nc3nc4ccccc4n32)c(OC)c1OC` (stereo not given), the survival is inactive: 64%.
Take `COc1ccc(C(=O)Nc2cc(-c3ccccc3)nn2-c2ccccc2)cc1`: the survival is inactive: 75%.
The result for `O=C(COCc1cc(-c2cccs2)on1)Nc1cc(Cl)ccc1O` reads inactive: 92%; that for `CCOC(=O)c1cccc(NC(=O)c2cc3cc4cc(OC)ccc4nc3s2)c1`, inactive: 76%.
To `COc1ccc(C)cc1NC(=O)CN1C(=O)COc2ccc(S(=O)(=O)N3CCOCC3)cc21` belongs inactive: 98%.
To `Cc1ccc(CNC(=O)C2CCN(S(=O)(=O)Cc3ccccc3)CC2)cc1` belongs inactive: 75%.
As to `COc1ccc(CNc2oc(/C=C/c3cc(OC)c(OC)c(OC)c3)nc2C#N)cc1`, the survival is inactive: 59%.
To `O=C(Cn1c(-c2cccs2)cc2cc(F)ccc21)N1CCN(c2ccccc2)CC1` belongs inactive: 71%; to `COc1ccc(C)cc1-n1nnc(S(=O)(=O)c2ccc(C)cc2)c1C`, inactive: 54%; to `COc1ccc2c(C)c(CCC(=O)NCc3ccccc3OC)c(=O)oc2c1`, inactive: 64%.
To `Cc1cccn2c(=O)c(C(=O)NC(C)c3ccccc3)c(O)nc12` (stereo not given) belongs inactive: 58%; to `CCOc1ccc(Nc2oc(/C=C/c3ccc(OC)c(OC)c3)nc2C#N)cc1`, active: 55%; to `COCCn1c(SCC(=O)NCc2ccco2)nnc1-c1cccs1`, inactive: 114%.
To `COc1cccc(Nc2nc3c(S(=O)(=O)c4cc(C)ccc4C)nnn3c3ccsc23)c1` belongs inactive: 46%; to `CC(=O)Nc1c(C)nn(-c2ccccc2)c1N1CCC(C(=O)Nc2ccccc2C(F)(F)F)CC1`, inactive: 84%; to `O=C(CN1c2ccc(Br)cc2-c2ccccc2S1(=O)=O)N1CCCCC1`, inactive: 91%.
On to `Cc1ccc(NC(=O)N2CCN(Cc3nc4ccc(C)cc4o3)CC2)cc1`, for which the survival is inactive: 91%.
Regarding `Cc1cc(=O)c2cc(C(=O)Nc3ccc(F)cc3)ccc2[nH]1`, the survival is inactive: 83%.
The result for `CCOC(=O)N1CCN(S(=O)(=O)N2CCCC(C(=O)NCc3cc(Br)ccc3OC)C2)CC1` (stereo not given) reads inactive: 74%.
To `CCN1CCc2nc3sc(C(=O)Nc4ccccc4OC(F)(F)F)c(N)c3cc2C1` belongs active: 44%; to `Cc1cc(C)c(NC(=O)CSC2=Nc3ccccc3C3=NC(CC(=O)NCc4cccs4)C(=O)N23)c(C)c1` (stereo not given), inactive: 79%; to `Cc1ccc(CNS(=O)(=O)c2ccc3[nH]c4c(c3c2)CCCCC4)cc1`, inactive: 75%.
On to `COCCCn1c(=O)c2sccc2n2c(CCCC(=O)Nc3cccc(OC)c3)nnc12`, for which the survival was inactive: 86%.
As for `COc1ccc(CNC(=O)c2cc3cccc4c3n2CC(C)S4)cc1OC` (stereo not given), the survival was inactive: 84%.
The result for `COCCCn1c(SCC(=O)Nc2ccc(F)cc2)nc2c(sc3ccccc32)c1=O` reads inactive: 81%; that for `COc1ccc(Cl)cc1NC(=O)Cn1nc(C(F)(F)F)c2c1CCCC2`, active: 35%.
To `O=C(c1ccccc1Cl)N1CCC(c2nc3ccccc3s2)CC1` belongs inactive: 57%; to `CCN(CC)S(=O)(=O)c1ccc(C(=O)NC2CC(=O)N(c3ccc(OC)c(OC)c3)C2)cc1` (stereo not given), inactive: 70%.
To `Cc1ccc(N(CC(=O)NCCSc2ccccc2)S(=O)(=O)c2ccc(F)cc2)cc1` belongs inactive: 109%; to `CC(=O)c1ccc(NC(=O)c2cc3sccc3n2Cc2ccc(Cl)cc2)cc1`, inactive: 90%.
As to `O=C(COc1ccc(Cl)cc1)NCC(c1ccco1)S(=O)(=O)c1ccc(F)cc1` (stereo not given), the survival was inactive: 87%.
The result for `CCOCCCNC(=O)C(=O)Nc1c2c(nn1-c1ccccc1)CSC2` reads inactive: 91%; that for `CC1CCc2c(sc3nnn(CC(=O)Nc4c(C(C)C)cccc4C(C)C)c(=O)c23)C1` (stereo not given), inactive: 102%; that for `CCC(C)c1ccccc1OCC(=O)Nc1ccc(S(=O)(=O)Nc2cc(C)on2)cc1` (stereo not given), inactive: 80%.
To `COc1cc(NS(=O)(=O)c2c(C(=O)N3CCCCC3)c(C)n(C)c2C)cc(OC)c1OC` belongs inactive: 74%; to `COc1ccc(-c2cc3ncc(C(=O)c4cc([N+](=O)[O-])ccc4O)cn3n2)cc1`, active: 33%; to `O=C(Nc1cccc2cccnc12)c1ccc(-c2cccc(Cl)c2)o1`, active: 3%.
To `CCCn1c2ccccc2c2cnn(CC(=O)NCCCN(CC)c3ccccc3)c(=O)c21` belongs inactive: 81%.
For `CCOc1cc(S(=O)(=O)NCCc2ccc(OC)c(OC)c2)c(OCC)cc1-n1cnnn1`, the survival was inactive: 96%.
Turning to `Cc1ccc(Cl)cc1-n1ncc2c(Nc3ccc4c(c3)OCCO4)ncnc21`, the survival was inactive: 82%.
To `O=C(c1ccc2c(c1)N(Cc1c(F)cccc1Cl)C(=O)c1ccccc1S2)N1CCCC1` belongs inactive: 74%; to `COc1cc(NC(=O)CN2C(=O)COc3ccc(S(=O)(=O)NC4CCCC4)cc32)cc(OC)c1`, inactive: 124%; to `CC(=O)N1CCCC1c1nc2ccccc2n1Cc1ccc(F)cc1` (stereo not given), inactive: 85%.
To `Fc1ccc(-c2csc(=Nc3cccc(C(F)(F)F)c3)n2Cc2ccc3c(c2)OCO3)cc1` belongs inactive: 81%.
Turning to `CC(=O)Nc1ccc(S(=O)(=O)N2CCN(C(=O)N3CCCC3)CC2)cc1`, the survival is inactive: 85%.
For the molecule `COc1ccc(-c2nc(CCNC(=O)c3ccccc3)cs2)cc1OC`, the survival was inactive: 130%.
To `Fc1ccc(-c2cc(-c3ccccc3)c3c(n2)-c2ccccc2OC3)cc1` belongs inactive: 83%; to `Cc1cccc(C)c1NC(=O)CCCn1c(=O)c2cccn2c2ccccc21`, inactive: 55%; to `O=C1C(=O)N(C2CCNCC2)CCN1Cc1ccccc1`, inactive: 81%.
The result for `CCOC(=O)c1c(S(=O)(=O)NCC(=O)Nc2ccc(C(C)=O)cc2)c(C)n(C)c1C` reads inactive: 80%; that for `O=C(Nc1sc2c(c1C(=O)NCC1CCCO1)CCC2)c1cc(=O)c2cc(Cl)ccc2o1` (stereo not given), active: 43%.
Turning to `COc1cccc(NC(=O)CCCn2c(=O)c3cccn3c3cccnc32)c1`, the survival was inactive: 88%.
To `Cc1ccc(CCNC(=O)c2ccc3c(c2)N(Cc2ccccc2F)C(=O)c2ccccc2S3=O)cc1` (stereo not given) belongs inactive: 69%; to `Cn1nnnc1SCCCNCc1cc(Br)ccc1OCc1ccccc1F`, inactive: 63%; to `CCOC(=O)c1cc(-c2ccccc2)n(CC(=O)Nc2ccccc2OCC)c1C`, inactive: 83%.
For `Cn1ncc2c(Nc3cccc(C#N)c3)ncnc21`, the survival is inactive: 86%.
To `CCc1cccc(C)c1NC(=O)CSc1n[nH]c(-c2ccccc2)n1` belongs inactive: 89%; to `COc1cc(NC(=O)CCN2CCN(c3ccccc3)CC2)cc(OC)c1`, inactive: 150%.
The result for `Cc1cc(C)cc(NC(=O)C(=O)NCC(c2cccnc2)N2CCOCC2)c1` (stereo not given) reads inactive: 107%; that for `Cc1ccc(Cl)cc1NC(=O)CCn1cnc2ccccc2c1=O`, inactive: 81%.
In the case of `CCOC(=O)c1ccc(NC(=O)C2=C(C)C(=O)OC23CCN(C(C)=O)CC3)cc1`, the survival is inactive: 80%.
